# Hit rate of the full screen: of about 310,000 compounds, about 14,000 (4.5%) showed an effect of 50% or more. The effect is printed as a negative number. The list shows a part of the results. Where a SMILES comes first, the peptide text is derived from it. The star is where a group is joined. Boc = CC(C)(C)OC(=O)*
# Molecular target: human ether-à-go-go-related gene (hERG) potassium channel (human, UniProt Q12809)
# Assay: primary screen, population patch clamp on CHO cells stably expressing hERG
# 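Also: peak tail current of the secondary pulse compared with the same well before compound.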
# human ether-à-go-go-related gene (hERG) potassium channel, sequence (Q12809 whole entry, looked up): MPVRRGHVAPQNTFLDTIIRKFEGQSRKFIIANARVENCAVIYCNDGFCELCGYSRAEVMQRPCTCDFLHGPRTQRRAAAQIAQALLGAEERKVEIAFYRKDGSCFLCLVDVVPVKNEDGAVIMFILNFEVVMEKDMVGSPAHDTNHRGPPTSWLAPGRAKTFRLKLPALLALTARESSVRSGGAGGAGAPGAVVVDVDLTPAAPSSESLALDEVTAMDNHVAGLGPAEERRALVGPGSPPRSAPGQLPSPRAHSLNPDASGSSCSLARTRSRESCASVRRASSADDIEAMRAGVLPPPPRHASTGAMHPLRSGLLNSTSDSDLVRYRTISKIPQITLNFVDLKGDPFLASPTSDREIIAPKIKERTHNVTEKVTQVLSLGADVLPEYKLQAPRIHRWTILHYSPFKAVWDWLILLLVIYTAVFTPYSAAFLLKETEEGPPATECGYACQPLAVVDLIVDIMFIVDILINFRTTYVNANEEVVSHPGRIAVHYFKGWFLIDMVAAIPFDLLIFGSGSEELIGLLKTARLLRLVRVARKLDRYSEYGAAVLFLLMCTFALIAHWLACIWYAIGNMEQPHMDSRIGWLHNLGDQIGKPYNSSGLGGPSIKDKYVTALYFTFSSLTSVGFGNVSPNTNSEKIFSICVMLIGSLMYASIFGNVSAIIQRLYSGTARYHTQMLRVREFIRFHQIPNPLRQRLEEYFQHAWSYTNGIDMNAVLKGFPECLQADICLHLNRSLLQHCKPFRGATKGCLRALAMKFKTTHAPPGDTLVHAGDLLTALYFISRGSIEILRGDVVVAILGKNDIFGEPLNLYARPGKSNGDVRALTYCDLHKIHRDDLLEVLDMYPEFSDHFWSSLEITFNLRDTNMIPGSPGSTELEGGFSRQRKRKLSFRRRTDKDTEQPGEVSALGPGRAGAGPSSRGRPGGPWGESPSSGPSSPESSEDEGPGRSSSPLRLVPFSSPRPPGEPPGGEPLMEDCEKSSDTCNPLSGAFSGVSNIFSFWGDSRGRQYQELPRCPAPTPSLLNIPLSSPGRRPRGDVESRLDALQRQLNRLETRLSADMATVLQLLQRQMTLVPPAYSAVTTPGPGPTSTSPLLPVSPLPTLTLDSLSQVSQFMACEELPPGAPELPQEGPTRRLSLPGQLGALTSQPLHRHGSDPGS
row,Compound,"hERG current change (%, negative = inhibition) at 10uM [%]"
1,O=c1cc(-c2ccccc2)nc2cc(-c3ccc(F)cc3)[nH]n12,14.9
2,COc1ccc(C=O)cc1CN1C(=O)c2ccccc2C1=O,2.39
3,O=C(NNC(=O)c1c(F)cccc1F)c1ccccc1-n1cccc1,33.8
4,CCCN1CCN(C(=O)C2CCN(c3ncnc4c3nc3n4CCCCC3)CC2)CC1,-2.38
5,CC(=O)Nc1nc(=S)n(-c2ccccc2)[nH]1,11
6,CNC(=O)c1nnn(-c2ccccc2)c1C(=O)NC,-2.43
7,Cc1ccc(Cl)cc1N1CCN(C(=O)CN(C2CCCCC2)S(C)(=O)=O)CC1,-3.38
8,COc1ccc(CCN2CC(C(=O)NCc3ccc(F)cc3)CC2=O)cc1OC (stereo not shown),2.45
9,CCC(C)NC(=O)CN1C(=O)CC(C)(C)S(=O)(=O)c2ccccc21 (stereo not shown),3.44
10,CCN(CC)c1ccc2cc(-c3nnc(-c4ccccc4)o3)c(=O)oc2c1,1.51
11,CCc1ccccc1NC(=S)N(CCCN1CCN(C)CC1)Cc1cccs1,-46
12,COC(=O)C1C2c3ccccc3OC1(C)N=c1s/c(=C/c3cn(C)nc3C)c(=O)n12 (stereo not shown),11.2
13,O=C(c1nc2ccccn2c1CNCCCn1ncc2ccccc21)N1CCOCC1,-18.4
14,COc1ccc(CN2CCNC(=O)C2CC(=O)NCCCn2cccn2)cc1C (stereo not shown),-35.8
15,CC(=O)c1ccc(NS(=O)(=O)c2ccc(C(C)(C)C)cc2)cc1,21.7
16,COc1ccccc1NC(=O)NCCN1CCN(C(=O)Nc2ccccc2OC)CC1,6.68
17,O=C(COC(=O)CNC(=O)c1ccc(Cl)cc1)Nc1ccc(Cl)cc1C(F)(F)F,15.7
18,O=C(O)c1c2c(nc3ccc(S(=O)(=O)N4CCC(C(=O)NCc5ccc(Cl)cc5)CC4)cc13)CCCC2,14.8
19,Cc1cc(C)cc(OCc2nnc(SCC(=O)c3ccc(Br)cc3)o2)c1,-20.1
20,COc1ccc(NS(=O)(=O)c2cc(C(=O)N3CCN(C(C)=O)CC3)ccc2Cl)cc1,21
21,CCC1=C2CC[C@H]3C(=O)N(C)C(=O)[C@H]3[C@H]2[C@@]2(Cc3ccccc3)C(=NCCOC)OC(=O)N2C1=O,-21.5
22,O=C(NC1CCCCC1)C1CCCN(c2nnnn2-c2ccccc2)C1 (stereo not shown),1.95

row,Compound,"hERG current change (%, negative = inhibition) at 10uM [%]"
1,CCN(CC)CCCNc1nc(-n2nc(C)cc2C)nc2sc3c(c12)CC(C)(C)OC3,-23
2,COc1ccccc1CNS(=O)(=O)c1ccc2c(c1)CCCN2C(C)=O,0.483
3,CCOC(=O)c1c(C)[nH]c(C(=O)OCC(=O)Nc2sc(C(=O)N(C)C)c(C)c2C(=O)OCC)c1C,-6.87
4,C=C1C(C(=O)Nc2ccc(OC)cc2)C1C(=O)Nc1ccc(OC)cc1 (stereo not shown),23.9
5,CC(=O)NCCCC(=O)NNC1CC(=O)N(c2cccc(Cl)c2)C1=O (stereo not shown),20.8
6,Cc1nnc(SCC(=O)Nc2ccc(O)cc2)c2ccccc12,20.9
7,CCCCNC(=O)C1C2C=CC3(CN(Cc4ccc(C)cc4)C(=O)C13)O2 (stereo not shown),4.76
8,Cc1[nH]c2ccccc2c1C1(O)C(=O)N(C(C)C)c2ccccc21 (stereo not shown),16.7
9,C=CCn1nnnc1SCC(=O)Nc1ccc(OC)cc1,17.5
10,CCn1c2ccccc2c2cc(NC(=O)c3cccc(OC)c3OC)ccc21,-10.5
11,COC(=O)c1ccc(NC(=O)C(=O)N2CCN(C(=S)Nc3cccc(OC)c3)CC2)cc1,-6.01
12,N#Cc1ccc(N2CCOCC2)nc1,-0.729
13,COc1ccc(/C=C(/NC(=O)/C=C/c2ccccc2)C(=O)O)cc1,24.9
14,COc1ccc(NC(=O)CSc2nc(C)cs2)cc1,0.534
15,COc1cccc(CN2CCC(C(=O)N3CCN(Cc4ccc5c(c4)OCO5)CC3)CC2)c1OC,-39.5
16,Cc1cccc(NC(=O)Nc2ccccn2)c1C,-4.92
17,N#CC1=C(SCC(=O)Nc2ccccc2)NC(=O)CC1c1ccco1 (stereo not shown),5.41
18,O=C(NNC(=O)C12CC3CC(CC(C3)C1)C2)c1cnccn1,5.77
19,CCC(=O)Nc1cccc(-n2nnnc2SCC(=O)N(C(C)C)C(C)C)c1,-14.8
20,CC(C)(C)C(=O)CN1C(=O)NC2(CCc3ccccc32)C1=O (stereo not shown),11
21,CS(=O)(=O)C1=NSC2=NC(=O)/C(=C\c3cccn3-c3ccc(Cl)cc3)C(=N)N21,2.85
22,CCOC(=O)c1ccsc1NC(=O)c1ccco1,12.8

row,Compound,"hERG current change (%, negative = inhibition) at 10uM [%]"
1,CN(CCOc1ccccc1)S(=O)(=O)c1ccc2oc3ccccc3c2c1,0.537
2,CC(C)CC(NC(=O)OC(C)(C)C)C(=O)NC(C(=O)NC(C)C(N)=O)C(C)C (stereo not drawn) (Boc-Leu-Val-Ala-NH2; configuration not given here),-5.61
3,Cc1cccc(NC(=S)NN2CCN(C)CC2)c1,-17.1
4,O=C(CCCOc1ccccc1)Nc1cccc(C(=O)O)c1,12.6
5,COC(=O)CSc1nccc(C)n1,14.6
6,CCCCc1nc2cc(C(=O)N3CCCC3)ccc2o1,13.1
7,Cc1ccc(C(=O)NNC2=Nc3cc([N+](=O)[O-])ccc3OC2)cc1,9.68
8,Cc1cc(NS(=O)(=O)c2ccc(NC(=O)c3ccc([N+](=O)[O-])c(Cl)c3)cc2)no1,6.24
9,COc1ccc(NC(=O)C2Cc3ccccc3O/C2=N\O)cc1 (stereo not shown),13.8
10,NS(=O)(=O)c1cc2c(cc1Cl)NC(C1CC3C=CC1C3)NS2(=O)=O (stereo not shown),15
11,Cc1cccc(CN2CCN(C(=S)Nc3ccccc3)CC2)c1,1.77
12,CCn1c(SCc2ccccc2)nnc1-c1ccc(S(=O)(=O)N2CCCCC2)cc1,-36.2
13,CC(C)C(=O)N(Cc1cc2ccccc2[nH]c1=O)C(C)(C)C,-0.303
14,CCOc1ccc(NC(=O)CN(C)C(=O)c2cccnc2SC)cc1OCC,6.23
15,N#Cc1ccc(S(=O)(=O)N2CCN(C(=O)[C@@H]3CCCN3C(=O)c3cccs3)CC2)cc1,-40.6
16,COc1cc(/C=C(\NC(=O)c2cc(OC)c(OC)c(OC)c2)C(=O)NC(C(=O)O)c2ccccc2)cc(OC)c1OC (stereo not shown),-2.38
17,O=C(C1CCN(S(=O)(=O)c2cccc3cccnc23)CC1)N1CC=C(c2ccccc2)CC1,-23.2
18,CC(C)N(CC#CCC1(O)c2ccccc2-c2ccccc21)C(C)C.Cl,-22.3
19,Cc1cccc2sc(N(CCCN(C)C)C(=O)c3ccco3)nc12.Cl,-74.9
20,COc1ccc2c(c1OC)CN1CCc3cc4c(cc3C1C2)OCO4 (stereo not shown),-16.5
21,Cn1c(N2CCN(C(=O)Nc3ccc(C(F)(F)F)cc3)CC2)nc2ccccc21,-41.3
22,N#CC(C(=S)Nc1ccccc1)c1nc2ccccc2[nH]1 (stereo not shown),11.2

row,Compound,"hERG current change (%, negative = inhibition) at 10uM [%]"
1,N/C(=N\c1nc2ccccc2o1)NC(=O)C(Cc1ccccc1)N1C(=O)c2ccccc2C1=O (stereo not shown),15.8
2,Cc1ccc(/C=C/C(=O)N2CCN(S(=O)(=O)/C=C/c3ccccc3)CC2)o1,-8.63
3,Cc1onc(-c2ccccc2)c1C(=O)Nc1nc2c(s1)C(=O)CC(C)(C)C2,2.83
4,O=C(N/N=C\c1ccc2c(c1)OCO2)c1ccc(Cn2cc(Br)c([N+](=O)[O-])n2)o1,-8.65
5,CCOc1ccc2nc(SCC(=O)NCC3CCCO3)c(C#N)cc2c1 (stereo not shown),-11.2
6,Cc1c(C(=O)Nc2ccc(F)cc2)oc2ccc(S(=O)(=O)N3CC(C)CC(C)C3)cc12 (stereo not shown),16.3
7,CCc1ccc(NC(=O)COc2ccc(/C=C(/C#N)c3nc4ccccc4[nH]3)cc2OC)cc1,5.07
8,Cc1ccc(-n2nnnc2SC(C)C(=O)NCC(=O)Nc2ccc(F)c(F)c2F)c(C)c1 (stereo not shown),-14.7
9,O=C(CN(Cc1ccc2c(c1)OCO2)C(=O)c1cnsn1)NC1CCCC1,6.24
10,CC(C)=N/N=C1/NC(=O)C(Cc2ccccc2)S1 (stereo not shown),23.7
11,CCOc1cc(CN2CCCC(CO)(Cc3ccc(F)cc3F)C2)ccc1OC (stereo not shown),-55.9
12,O=C(Nc1ccccc1C(=O)N1CCN(c2ccccc2)CC1)c1ccco1,-4.05
13,CCOC(=O)c1c(CN(C)C)n(-c2ccc(C)cc2)c2cc(Br)c(O)cc12,-35.8
14,CSc1ccccc1C(=O)Nc1ncn[nH]1,19.3
15,CCCCNC(=O)C1c2ccccc2Oc2ccccc21,18.3
16,Cc1ccc(CSCCC(=O)NCCC2=CCCCC2)cc1,1.38
17,COc1ccc2c(c1OC)C(=O)OC2Nc1ncc(Br)cc1Br (stereo not shown),7.16
18,O=C(COc1ccccc1)Nc1cccc2nsnc12,-27.4
19,COc1ccc(NC(=O)Cn2nnc(C(=O)NCc3ccc4c(c3)OCO4)c2N)c(OC)c1,18.1
